Consider one molecule from patent US20230250184A1 (NANJING LEGEND BIOTECH, published 2023).

In test [1] the target is T1, human CD22 on cells (Daudi, Raji, Nalm.6, K562-CD22) (human, UniProt P20273 20-847).
T1 construct: whole, on cells; also called CD22 receptor; CD22 positive cell lines
T1 sequence (looked up): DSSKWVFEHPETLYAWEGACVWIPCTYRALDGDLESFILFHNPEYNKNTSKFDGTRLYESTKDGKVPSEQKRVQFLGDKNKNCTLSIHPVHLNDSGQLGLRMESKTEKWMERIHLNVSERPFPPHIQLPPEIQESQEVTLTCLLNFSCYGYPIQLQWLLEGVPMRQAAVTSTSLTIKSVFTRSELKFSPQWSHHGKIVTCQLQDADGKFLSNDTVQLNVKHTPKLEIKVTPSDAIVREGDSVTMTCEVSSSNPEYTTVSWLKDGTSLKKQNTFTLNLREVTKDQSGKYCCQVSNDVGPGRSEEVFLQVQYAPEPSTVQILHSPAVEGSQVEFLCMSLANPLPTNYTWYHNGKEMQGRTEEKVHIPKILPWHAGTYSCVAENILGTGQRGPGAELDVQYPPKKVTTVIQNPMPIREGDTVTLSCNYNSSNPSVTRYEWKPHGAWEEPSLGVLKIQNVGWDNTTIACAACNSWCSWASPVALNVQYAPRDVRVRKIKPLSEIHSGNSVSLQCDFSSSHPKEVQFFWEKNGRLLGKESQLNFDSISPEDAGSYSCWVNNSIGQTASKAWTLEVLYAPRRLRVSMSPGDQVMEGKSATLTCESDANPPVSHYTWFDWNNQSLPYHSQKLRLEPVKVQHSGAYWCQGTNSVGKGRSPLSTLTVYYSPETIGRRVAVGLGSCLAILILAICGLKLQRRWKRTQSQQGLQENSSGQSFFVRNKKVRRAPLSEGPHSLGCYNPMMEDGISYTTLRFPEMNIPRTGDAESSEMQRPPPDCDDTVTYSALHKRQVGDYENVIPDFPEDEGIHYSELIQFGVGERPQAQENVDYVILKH
Nature of the test: flow cytometry on Raji cells, PE anti-human IgG1 Fc detection.

Test [2] deals with T1, human CD22 on cells (Daudi, Raji, …). As to the kind of experiment: flow cytometry on Daudi cells, PE anti-human IgG1 Fc detection. (In general: A flow cytometer gives signals particle by particle.)
In another test the target is T2, Human CD22 Protein (human, UniProt P20273 20-687).
T2 construct: They are treated here as one molecule; also called CD22 antigen
T2 sequence (looked up): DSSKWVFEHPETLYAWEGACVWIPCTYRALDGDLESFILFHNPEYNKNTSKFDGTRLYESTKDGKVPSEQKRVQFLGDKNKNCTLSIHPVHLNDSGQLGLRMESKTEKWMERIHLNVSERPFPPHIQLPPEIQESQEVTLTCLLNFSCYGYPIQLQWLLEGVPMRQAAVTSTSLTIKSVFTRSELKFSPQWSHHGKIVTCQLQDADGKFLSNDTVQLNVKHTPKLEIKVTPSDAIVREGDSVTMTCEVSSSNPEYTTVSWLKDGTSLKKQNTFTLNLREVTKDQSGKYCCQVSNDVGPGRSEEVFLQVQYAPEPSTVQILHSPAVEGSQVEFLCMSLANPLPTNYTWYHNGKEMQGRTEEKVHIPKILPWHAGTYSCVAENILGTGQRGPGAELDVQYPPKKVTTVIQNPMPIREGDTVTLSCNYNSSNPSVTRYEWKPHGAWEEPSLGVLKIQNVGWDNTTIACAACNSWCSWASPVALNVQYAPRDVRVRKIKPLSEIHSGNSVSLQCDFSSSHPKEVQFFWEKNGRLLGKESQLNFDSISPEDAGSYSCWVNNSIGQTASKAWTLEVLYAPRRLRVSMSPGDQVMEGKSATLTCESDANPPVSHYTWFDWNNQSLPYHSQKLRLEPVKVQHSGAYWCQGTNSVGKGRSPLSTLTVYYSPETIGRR
As to the kind of experiment: SPR (Biacore 8K), 25 C, mAb captured on protein A chip, human CD22 protein as analyte, 1:1 model. Background: Surface plasmon resonance follows binding to a sensor surface in real time, without labels.

B1: VHH-66-huIgG1Fc mAb (Fc fusion)
chain: EVQLVESGPGLVKPSQTLSLTCTVSGASITTGEFYWNWFRQPPGKGLEWMGAIAASGSTTYSPSFESRTSISRDTSENQFYLQLSSVTPEDTAVYYCGRSFGVAAVTTGQNRGQGTQVTVSS[human IgG1 Fc left out]
notes: VHH fused to the human IgG1 Fc fragment and expressed in Expi293F; the text around them names VHH-66-huIgG1Fc mAb; also called Anti-CD22 VHH-huIgG1Fc mAb; exemplary anti-CD22 VHH-huIgG1Fc mAb
One may read the EC50 as the concentration that produces a half-maximal response. As usually defined, the Kd is the constant that tells how readily two partners part at equilibrium. A lower Kd goes with tighter binding. In general, koff refers to a measure of how fast the partners let go of each other. High values mean a short-lived complex, low ones a long-lived complex. A word on the kon: it is a measure of how fast the partners come together. A low value points to slow association. For the molecule B1, in test [1], a half-maximal response (EC50) required 0.93 nM. The molecule also had a concentration for a half-maximal effect (EC50) in test [2] of 0.91 nM. In the test with Human CD22 Protein, this molecule gave a Kd of 4.76 nM, a koff of 0.000528 s⁻¹ and a kon of 111000 M⁻¹ s⁻¹.
